Where “and” joins values, the source holds several entries; their conditions need not be identical. Identical values can stand only once. The list shows a part of the results.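 How the source made its calls: active = GRHL reporter fold change of at least 2 over DMSO at 10 µM; inactive = below 2-fold.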 Many values rest on one well or one pass, so single values are uncertain.
test system: HEK293 GRHL-luciferase reporter; assay: GRHL luciferase reporter activity, fold change over DMSO control; higher = stronger GRHL reporter activation; details: 10 µM; 24 h
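Further: stable HEK293 line carrying repeated GRHL consensus sites upstream of a minimal promoter driving luciferase, luminescence read 24 h post-treatment, normalized to 0.5% DMSO vehicle wells.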

| SMILES | GRHL luciferase reporter activity |
| --- | --- |
| CC1(O)CCC(C(C)(C)O)CC1 (centres undefined) | inactive: 0.915 |
| C=C(CC)C(=O)c1ccc(OCC(=O)O)c(Cl)c1Cl | active: 15.2 |
| CCCNC(=O)NS(=O)(=O)c1ccc(Cl)cc1 | inactive: 0.98 |
| CC(C)C(=O)Nc1ccc([N+](=O)[O-])c(C(F)(F)F)c1 | inactive: 1.82 |
| CCOC(=O)[C@H](CCc1ccccc1)N[C@@H](C)C(=O)N(CC(=O)O)C1Cc2ccccc2C1 | inactive: 0.863 |
| CC(=O)N1CCN(c2ccc(OCC3COC(Cn4ccnc4)(c4ccc(Cl)cc4Cl)O3)cc2)CC1 (centres undefined) | active: 2.25 |
| CO[C@@]1(NC(=O)C(C(=O)O)c2ccc(O)cc2)C(=O)N2C(C(=O)O)=C(CSc3nnnn3C)CO[C@@H]21 (some centres undefined) | inactive: 1.01 |
| O=C(CCCl)NCc1ccccc1 | inactive: 1.16 |
| O=C(O)c1cc(=O)c2cccc(O)c2[nH]1 | inactive: 1.01 |
| N[C@@H](CSSC[C@H](N)C(=O)O)C(=O)O | inactive: 0.815 |
| O=C1OC(=O)[C@H]2[C@@H]1[C@@H]1CC[C@H]2O1 | inactive: 0.9 |
| CC1(C)O[C@@H]2C[C@H]3[C@@H]4C[C@H](F)C5=CC(=O)C=C[C@]5(C)[C@H]4[C@@H](O)C[C@]3(C)[C@]2(C(=O)CO)O1 | inactive: 1.08 |
| N=C(N)NC(=N)NCCc1ccccc1 | inactive: 1.1 |
| OC(CNCC(O)C1CCc2cc(F)ccc2O1)C1CCc2cc(F)ccc2O1 (centres undefined) | inactive: 0.919 |
| CCN(CC)CCNC(=O)c1ccc(N)cc1 | inactive: 0.812 |
| CO[C@H]1/C=C/O[C@@]2(C)Oc3c(C)c(O)c4c(O)c(c5c(nc6cc(C)ccn65)c4c3C2=O)NC(=O)/C(C)=C\C=C\[C@H](C)[C@H](O)[C@@H](C)[C@@H](O)[C@@H](C)[C@H](OC(C)=O)[C@@H]1C | inactive: 1.19 |
| CCOC(=O)C1=C[C@@H](OC(CC)CC)[C@H](NC(C)=O)[C@@H](N)C1 | inactive: 0.757 |
| N=C(N)N | inactive: 0.878 and inactive: 1.08 |
| CC(=O)OCC(=O)[C@@]1(O)CC[C@H]2[C@@H]3CCC4=CC(=O)CC[C@]4(C)[C@H]3C(=O)C[C@@]21C | inactive: 1.02 |
| COc1cc(O)c2c(=O)c(O)c(-c3ccccc3)oc2c1 | inactive: 1.38 |

| SMILES | GRHL luciferase reporter activity |
| --- | --- |
| CC(=O)Oc1cc(OC(C)=O)c2c(c1)O[C@H](c1ccc(OC(C)=O)c(OC(C)=O)c1)[C@@H](OC(C)=O)C2 | inactive: 0.887 |
| CC(=O)NC(Cc1ccccc1)C(=O)O (centres undefined) | inactive: 1.15 |
| CC(=O)Oc1c[nH]c2ccccc12 | active: 2.39 |
| C[C@H](CS)C(=O)N1CCC[C@H]1C(=O)O | inactive: 0.936 |
| CN(C)CCCN1c2ccccc2Sc2ccc(C(F)(F)F)cc21 | inactive: 0.0688 |
| O=C(O)c1ccccc1C(=O)Nc1ccc(S(=O)(=O)Nc2nccs2)cc1 | inactive: 1.13 |
| CC1(C)C(=O)C=CC2(C)C1C=CC1(C)C2CCC2(C)C(c3ccoc3)OC(=O)C3OC312 (centres undefined) | inactive: 0.0463 |
| CC#CCn1c(N2CCC[C@@H](N)C2)nc2c1c(=O)n(Cc1nc(C)c3ccccc3n1)c(=O)n2C | inactive: 0.977 |
| O=C(CCCN1CCC(O)(c2ccc(Cl)cc2)CC1)c1ccc(F)cc1 | inactive: 0.864 |
| COc1ccc2c(=O)cc(-c3ccccc3)oc2c1OC | inactive: 1.63 |
| O=C(C=Cc1ccc(O)cc1)c1ccccc1O | active: 5.77 |
| S=c1ccss1 | inactive: 1.1 |
| COc1ccc(C(=O)c2ccc(O)cc2)c(O)c1O | active: 2.29 |
| O=C(O)CCC(=O)OC[C@@H](NC(=O)C(Cl)Cl)[C@H](O)c1ccc([N+](=O)[O-])cc1 | inactive: 0.96 |
| CC(C)(C)NCC(O)c1ccc(O)c(CO)c1 (centres undefined) | inactive: 1.09 |
| COc1cc(C/C=C/c2ccccc2)c(OC)cc1O | inactive: 1.36 |
| COc1ccc(-n2nc(CCC(=O)N(C)O)cc2-c2ccc(Cl)cc2)cc1 | inactive: 1.89 |
| CC(=O)OCC(=O)[C@@]1(O)[C@H](C)C[C@H]2[C@@H]3CCC4=CC(=O)C=C[C@]4(C)[C@@]3(F)[C@@H](O)C[C@@]21C | inactive: 0.89 |
| NS(=O)(=O)c1cc2c(cc1Cl)NC(C1CC3C=CC1C3)NS2(=O)=O (centres undefined) | inactive: 0.967 |

Source: the supplement of paper PMC8748497
